Data reported in the supplement of paper PMC12217912.
The other results are listed elsewhere or left out. The full chains were built here from the parent and the listed change. Values near 0.05 are background.

B1: TEV protease; numbered along this chain (parent)
chain: MGESLFKGPRDYNPISSSICHLTNESDGHTTSLYGIGFGPFIITNKHLFRRNNGTLVVQSLHGVFKVKDTTTLQQHLVDGRDMIIIRMPKDFPPFPQKLKFREPQREERICLVTTNFQTKSMSSMVSDTSCTFPSGDGIFWKHWIQTKDGQCGSPLVSTRDGFIVGIHSASNFTNTNNYFTSVPKNFMELLTNQEAQQWVSGWRLNADSVLWGGHKVFMVKPEEPFQPVKEATQL

Variants of: B1
Experiment: raw area under fraction-flipped curve 0-4 h after induction (AUC4h, not background-subtracted), DNA-recorder readout of cleavage of the substrate (dimensionless); higher = more cleavage of the substrate by the protease variant
Conditions: temperature: 34 °C; time window: 0-4 h after rhamnose induction
Method: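 In vivo DNA recorder in E. coli TOP10(DE3) ΔrhaA at 34 °C. Each TEVp single-site mutant (parent TEVp 0) is paired with a single-site variant of the 7-mer TEVs (canonical ENLYFQ|S). The substrate sits between flexible linkers in a Bxb1-sfGFP-TEVs-SsrA fusion, so cleavage stabilises Bxb1 and speeds flipping of a recombination array, read by NGS. The value is the raw area under the fraction-flipped curve over 0-4 h after rhamnose induction (AUC4h), with ≥20 reads per time point. It is not background-subtracted; inactive controls average about 0.047.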
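Note: Bxb1 expression induced with 0.2% (w/v) L-rhamnose at OD600 near 0.5, cultures sampled hourly, flipped fraction per protease–substrate barcode pair counted by paired-end Illumina sequencing.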

Variant | area with substrate ENLAFQS | area with substrate ENLDFQS | area with substrate ENLEFQS | area with substrate ENLFFQS | area with substrate ENLGFQS | area with substrate ENLHFQS | area with substrate ENLKFQS | area with substrate ENLLFQS | area with substrate ENLNFQS | area with substrate ENLPFQS | area with substrate ENLRFQS | area with substrate ENLSFQS | area with substrate ENLTFQS | area with substrate ENLVFQS | area with substrate ENLWFQS | area with substrate ENLCFQS | area with substrate ENLMFQS | area with substrate ENLIFQS | area with substrate ENLQFQS
MGESLFKGPRDGNPISSSICHLTNESDGHTTSLYGIGFGPFIITNKHLFRRNNGTLVVQSLHGVFKVKDTTTLQQHLVDGRDMIIIRMPKDFPPFPQKLKFREPQREERICLVTTNFQTKSMSSMVSDTSCTFPSGDGIFWKHWIQTKDGQCGSPLVSTRDGFIVGIHSASNFTNTNNYFTSVPKNFMELLTNQEAQQWVSGWRLNADSVLWGGHKVFMVKPEEPFQPVKEATQL [Y12G] | 0.0606 | 0.057 | 0.0932 | 0.0608 | 0.0789 | 0.067 | 0.0701 | 0.0712 | 0.0635 | 0.0548 | 0.0711 | 0.0472 | 0.0794 | 0.0731 | 0.0583 | – | – | – | –
MGESLFKGPRDYNPISSWICHLTNESDGHTTSLYGIGFGPFIITNKHLFRRNNGTLVVQSLHGVFKVKDTTTLQQHLVDGRDMIIIRMPKDFPPFPQKLKFREPQREERICLVTTNFQTKSMSSMVSDTSCTFPSGDGIFWKHWIQTKDGQCGSPLVSTRDGFIVGIHSASNFTNTNNYFTSVPKNFMELLTNQEAQQWVSGWRLNADSVLWGGHKVFMVKPEEPFQPVKEATQL [S18W] | 0.0429 | 0.0629 | 0.0631 | 0.066 | – | 0.0628 | 0.0669 | 0.0803 | – | 0.0656 | 0.0649 | 0.077 | – | – | 0.0877 | 0.058 | 0.0642 | – | –
MGESLFKGPRDYNPISSEICHLTNESDGHTTSLYGIGFGPFIITNKHLFRRNNGTLVVQSLHGVFKVKDTTTLQQHLVDGRDMIIIRMPKDFPPFPQKLKFREPQREERICLVTTNFQTKSMSSMVSDTSCTFPSGDGIFWKHWIQTKDGQCGSPLVSTRDGFIVGIHSASNFTNTNNYFTSVPKNFMELLTNQEAQQWVSGWRLNADSVLWGGHKVFMVKPEEPFQPVKEATQL [S18E] | 0.0473 | 0.028 | 0.0572 | 0.0768 | – | 0.0635 | 0.0784 | – | 0.0568 | 0.0525 | 0.0916 | 0.0527 | – | – | 0.0721 | 0.0753 | – | – | –
MGEWLFKGPRDYNPISSSICHLTNESDGHTTSLYGIGFGPFIITNKHLFRRNNGTLVVQSLHGVFKVKDTTTLQQHLVDGRDMIIIRMPKDFPPFPQKLKFREPQREERICLVTTNFQTKSMSSMVSDTSCTFPSGDGIFWKHWIQTKDGQCGSPLVSTRDGFIVGIHSASNFTNTNNYFTSVPKNFMELLTNQEAQQWVSGWRLNADSVLWGGHKVFMVKPEEPFQPVKEATQL [S4W] | 0.0609 | 0.0513 | – | 0.0496 | – | 0.0678 | 0.0691 | 0.0634 | 0.0617 | 0.0745 | 0.0554 | 0.0538 | 0.0458 | – | – | – | – | 0.0932 | –
MGESLVKGPRDYNPISSSICHLTNESDGHTTSLYGIGFGPFIITNKHLFRRNNGTLVVQSLHGVFKVKDTTTLQQHLVDGRDMIIIRMPKDFPPFPQKLKFREPQREERICLVTTNFQTKSMSSMVSDTSCTFPSGDGIFWKHWIQTKDGQCGSPLVSTRDGFIVGIHSASNFTNTNNYFTSVPKNFMELLTNQEAQQWVSGWRLNADSVLWGGHKVFMVKPEEPFQPVKEATQL [F6V] | 0.0846 | 0.0667 | 0.0522 | 0.0962 | – | 0.105 | – | – | 0.0627 | – | – | 0.0694 | – | 0.0982 | 0.0843 | 0.0854 | – | – | –
MGESLYKGPRDYNPISSSICHLTNESDGHTTSLYGIGFGPFIITNKHLFRRNNGTLVVQSLHGVFKVKDTTTLQQHLVDGRDMIIIRMPKDFPPFPQKLKFREPQREERICLVTTNFQTKSMSSMVSDTSCTFPSGDGIFWKHWIQTKDGQCGSPLVSTRDGFIVGIHSASNFTNTNNYFTSVPKNFMELLTNQEAQQWVSGWRLNADSVLWGGHKVFMVKPEEPFQPVKEATQL [F6Y] | 0.0704 | 0.0705 | 0.0597 | – | 0.0693 | 0.0659 | 0.0733 | 0.0707 | 0.0786 | – | – | 0.0562 | – | – | – | 0.0546 | – | – | –
MGESLFKGYRDYNPISSSICHLTNESDGHTTSLYGIGFGPFIITNKHLFRRNNGTLVVQSLHGVFKVKDTTTLQQHLVDGRDMIIIRMPKDFPPFPQKLKFREPQREERICLVTTNFQTKSMSSMVSDTSCTFPSGDGIFWKHWIQTKDGQCGSPLVSTRDGFIVGIHSASNFTNTNNYFTSVPKNFMELLTNQEAQQWVSGWRLNADSVLWGGHKVFMVKPEEPFQPVKEATQL [P9Y] | 0.0954 | 0.0605 | 0.0771 | 0.0903 | 0.0859 | – | 0.0752 | 0.0759 | 0.0551 | – | – | 0.059 | – | 0.111 | – | – | – | 0.0042 | 0.0772
MGESLFKGPRNYNPISSSICHLTNESDGHTTSLYGIGFGPFIITNKHLFRRNNGTLVVQSLHGVFKVKDTTTLQQHLVDGRDMIIIRMPKDFPPFPQKLKFREPQREERICLVTTNFQTKSMSSMVSDTSCTFPSGDGIFWKHWIQTKDGQCGSPLVSTRDGFIVGIHSASNFTNTNNYFTSVPKNFMELLTNQEAQQWVSGWRLNADSVLWGGHKVFMVKPEEPFQPVKEATQL [D11N] | 0.0683 | 0.0692 | 0.0538 | 0.0745 | – | 0.0719 | 0.0812 | – | 0.0713 | 0.0727 | – | 0.0746 | – | – | 0.0756 | 0.0673 | 0.0728 | – | 0.0694
MGESLFKGPRYYNPISSSICHLTNESDGHTTSLYGIGFGPFIITNKHLFRRNNGTLVVQSLHGVFKVKDTTTLQQHLVDGRDMIIIRMPKDFPPFPQKLKFREPQREERICLVTTNFQTKSMSSMVSDTSCTFPSGDGIFWKHWIQTKDGQCGSPLVSTRDGFIVGIHSASNFTNTNNYFTSVPKNFMELLTNQEAQQWVSGWRLNADSVLWGGHKVFMVKPEEPFQPVKEATQL [D11Y] | 0.0684 | 0.0601 | 0.0713 | 0.0887 | 0.0697 | 0.0629 | 0.0781 | 0.0819 | 0.0671 | 0.0608 | – | 0.065 | 0.0675 | 0.0781 | 0.059 | 0.0743 | – | 0.085 | 0.0613
